In ChEMBL document CHEMBL1201862, “PubChem BioAssay data set” (2004):
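A five-concentration, 48-hour dose response in 96-well plates underlies each endpoint, interpolated linearly between surrounding concentrations. GI50 marks 50% less growth.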 Active and inactive are the calls of the source. Cut-off read from the data, not from the text of the source: active = GI50 up to about 1.1 µM and inactive = higher.

Each molecule was assayed on NCI-H322M (assay: DTP human tumour cell line panel, 48 h).
In the case of `O=C1c2cccnc2-c2nccc3c2c1nc1cc(Br)ccc13`, the GI50 is reported as active: 0.0776 µM. With `CC1=CC(C/C(C)=C/COc2ccc3ccc(=O)oc3c2)OC1=O` (centres undefined) the GI50 was inactive: > 100 µM. With `CCOc1ccc2c(c1)/C(=C(\C(Cl)=C(Cl)Cl)[N+](=O)[O-])N2` the GI50 was inactive: > 100 µM. With `Nc1nc(Cl)cc(NCCCCCCCCNc2cc(Cl)nc(N)n2)n1` the GI50 was inactive: 3.66 µM. With `CN1Cc2ccccc2S(=O)(=O)n2cccc2C1=O` the GI50 was inactive: > 100 µM. `COc1ccc2c(O)c3[n+](cc2c1OC)CCc1cc2c(cc1-3)OCO2` was tested, and the GI50 was inactive: > 100 µM. In the case of `CCCCC(CC)C(=O)Oc1ccc(C(=O)c2ccccc2)c(O)c1` (centres undefined), the GI50 is reported as inactive: 64.4 µM. In the case of `CCc1cccc(C)c1NC(=O)CC1C(=O)Nc2ccccc2[S+]1[O-]` (centres undefined), the GI50 is reported as inactive: 66.2 µM. `CC(C)=CC(=O)Cc1nc2ccc([N+](=O)[O-])cc2[nH]c1=O` was tested, and the GI50 was inactive: > 100 µM. With `OCC1OC2c3ccccc3COC2C1OCc1ccccc1` (centres undefined) the GI50 was inactive: > 100 µM. With `CC1=C[C@H]([C@H]2C=C(C)C(C(N)=O)=CN2Cc2c(Cl)cccc2Cl)N(Cc2c(Cl)cccc2Cl)C=C1C(N)=O` the GI50 was inactive: > 75 µM. `Cc1cc(C)nc(NS(=O)(=O)c2ccc(Nc3c4ccccc4nc4c(C(=O)NC(CO)(CO)CO)cccc34)cc2)n1` was tested, and the GI50 was inactive: 35.5 µM. In the case of `CCOc1ccc(/N=N/C2C(=O)N(C(=O)CC(=O)Nc3ccc(Cl)cc3)N=C2C)cc1` (centres undefined), the GI50 is reported as inactive: > 100 µM. For `S=C(N1CCN(c2ccc(Cl)c(Cl)c2)CC1)N1CCN(c2ccc(Cl)c(Cl)c2)CC1`, the GI50 was inactive: 13 µM. With `c1ccc(Nc2nnc(Cn3ccc4ccccc43)s2)cc1` the GI50 was inactive: > 100 µM. For `CN(Cc1c2ccccc2cc2ccccc12)S(=O)(=O)c1ccc(-c2c3nc(c(-c4ccc(S(=O)(=O)N(C)Cc5c6ccccc6cc6ccccc56)cc4)c4ccc([nH]4)c(-c4ccc(S(=O)(=O)N(C)Cc5c6ccccc6cc6ccccc56)cc4)c4nc(c(-c5ccc(S(=O)(=O)N(C)Cc6c7ccccc7cc7ccccc67)cc5)c5ccc2[nH]5)C=C4)C=C3)cc1`, the GI50 was inactive: > 100 µM. `O=NN(CCCl)C(=O)N[C@H]1CC[C@H](CC(=O)O)CC1` was tested, and the GI50 was inactive: > 100 µM. `COC(=O)/C(C#N)=C1\CCC(Nc2cccc(C(F)(F)F)c2)N1C` (centres undefined) was tested, and the GI50 was inactive: > 100 µM. For `ClCCN(CCCl)c1ccc(CNCCCNCc2ccc(N(CCCl)CCCl)cc2)cc1`, the GI50 was inactive: 3.87 µM. `CCCC[C@@H]1CCN2C[C@@H](O)[C@@H](O)[C@@H]2[C@H]1O` was tested, and the GI50 was inactive: > 100 µM. For `CC(=O)/C(=C\c1ccco1)C(=O)Nc1ccccc1`, the GI50 was inactive: > 100 µM. With `ClC[Si]12OCCN(CCO1)CCO2` the GI50 was inactive: > 100 µM. For `COc1ccc2c(c1)CC[C@@H]1C2CC[C@]2(C)OC(=O)CCC12` (some centres undefined), the GI50 was inactive: 66.4 µM. With `[N-]=[N+]=CC(=O)C1CCN(c2ccccc2)C1=O` (centres undefined) the GI50 was inactive: > 10 µM. With `O=c1[nH]c(=S)[nH]c2c(C3OC(CO)C(O)C3O)nsc12` (centres undefined) the GI50 was inactive: > 100 µM. In the case of `CCCCC(=O)OC[n+]1cccc(-c2c(COC(=O)NC(C)C)c(COC(=O)NC(C)C)c3n2CCC3)c1`, the GI50 is reported as inactive: > 76.9 µM. For `CCN1CN(c2ccccc2)C2(CCN(CC(CC3OCCO3)c3ccc(F)cc3)CC2)C1=O` (centres undefined), the GI50 was inactive: 3.74 µM. `CN1CCN(c2nc3ccccc3nc2C(=O)c2ccc(Cl)cc2)CC1` was tested, and the GI50 was inactive: 37.3 µM. With `O=c1[nH]cnc2c1ncn2C1SC(CO)C(O)C1O` (centres undefined) the GI50 was inactive: > 100 µM. In the case of `CC(=O)NC1CCC(NC(=O)OC(C)(C)C)C(NC(=O)OC(C)(C)C)C1` (centres undefined), the GI50 is reported as inactive: > 100 µM. `Cc1nc(=O)n2c(C)n[nH]c2c1C(=O)Nc1cc(Cl)cc(Cl)c1` was tested, and the GI50 was inactive: > 100 µM. `Nc1ccc(S(=O)(=O)Nc2ccc(Nc3c4ccccc4nc4ccccc34)cc2)cc1` was tested, and the GI50 was inactive: 3.9 µM. In the case of `COC(=O)[C@@]12OC[C@]34[C@H]([C@@H](O)[C@@H]1O)[C@@]1(C)CC(=O)C(OC(C)=O)=C(C)[C@@H]1C[C@H]3OC(=O)[C@H](OC(=O)C=C(C)C)[C@@H]24`, the GI50 is reported as inactive: 2.43 µM. For `CCN(CC)CCC(=O)/C=C/c1ccc(Cl)c(Cl)c1`, the GI50 was inactive: > 10 µM.
